Experimental data as given in PubChem BioAssay (NCI).
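Cells were grown in 96-well plates and exposed to each compound for 48 hours at five concentrations; endpoints were interpolated linearly between bracketing concentrations, or set to the highest concentration if not reached. At the GI50, growth is halved.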 Some entries of the source have several records that differ or are many. The list is limited to them. The source may hold further records. For some assays here: The tests behind the records often covered other concentration ranges, which the source does not state; a value can be the end of its range. For some assays here: The records of an entry are repeated measurements across runs, samples, wells, individuals or studies. A tag in brackets gives the origin of a value. The letters are not those of the source and start again with each entry.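 The concentration for full growth arrest is given as TGI.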

Tests used:
Test in all cases: NCI-60 cell line screen, 48 h
786-0 renal = tested on: 786-0 renal
CAKI-1 renal = tested on: CAKI-1 renal
CCRF-CEM leukemia = tested on: CCRF-CEM leukemia
DLD-1 colon = tested on: DLD-1 colon
DMS 114 small cell lung = tested on: DMS 114 small cell lung
EKVX NSCLC = tested on: EKVX NSCLC
HCT-116 colon = tested on: HCT-116 colon
HOP-62 NSCLC = tested on: HOP-62 NSCLC
IGROV1 ovarian = tested on: IGROV1 ovarian
K-562 leukemia = tested on: K-562 leukemia
KM12 colon = tested on: KM12 colon
LXFL 529 NSCLC = tested on: LXFL 529 NSCLC
M14 melanoma = tested on: M14 melanoma
M19-MEL melanoma = tested on: M19-MEL melanoma
MOLT-4 leukemia = tested on: MOLT-4 leukemia
NCI-H23 lung = tested on: NCI-H23 lung
NCI-H460 lung = tested on: NCI-H460 lung
OVCAR-4 ovarian = tested on: OVCAR-4 ovarian
RPMI-8226 leukemia = tested on: RPMI-8226 leukemia
SF-268 CNS = tested on: SF-268 CNS
SK-MEL-2 melanoma = tested on: SK-MEL-2 melanoma
SK-MEL-5 melanoma = tested on: SK-MEL-5 melanoma
SK-OV-3 ovarian = tested on: SK-OV-3 ovarian
SN12C renal = tested on: SN12C renal
SNB-19 CNS = tested on: SNB-19 CNS
SNB-75 CNS = tested on: SNB-75 CNS
SR leukemia = tested on: SR leukemia
SW-620 colon = tested on: SW-620 colon
TK-10 renal = tested on: TK-10 renal
UACC-62 melanoma = tested on: UACC-62 melanoma
UO-31 renal = tested on: UO-31 renal
XF 498 CNS = tested on: XF 498 CNS
A549 NSCLC = tested on: A549 NSCLC
ACHN renal = tested on: ACHN renal
COLO 205 colon = tested on: COLO 205 colon
HCC-2998 colon = tested on: HCC-2998 colon
HCT-15 colon = tested on: HCT-15 colon
HL-60(TB) leukemia = tested on: HL-60(TB) leukemia
HT29 colon = tested on: HT29 colon
LOX IMVI melanoma = tested on: LOX IMVI melanoma
MALME-3M melanoma = tested on: MALME-3M melanoma
NCI-H226 lung = tested on: NCI-H226 lung
NCI-H522 lung = tested on: NCI-H522 lung
OVCAR-3 ovarian = tested on: OVCAR-3 ovarian
OVCAR-8 ovarian = tested on: OVCAR-8 ovarian
SF-295 CNS = tested on: SF-295 CNS
SF-539 CNS = tested on: SF-539 CNS
U251 CNS = tested on: U251 CNS
MDA-MB-231 breast = tested on: MDA-MB-231 breast
A498 renal = tested on: A498 renal
BT-549 breast = tested on: BT-549 breast
DU-145 prostate = tested on: DU-145 prostate
HS 578T breast = tested on: HS 578T breast
MCF7 breast = tested on: MCF7 breast
MDA-MB-435 = tested on: MDA-MB-435
MDA-N = tested on: MDA-N
OVCAR-5 ovarian = tested on: OVCAR-5 ovarian
PC-3 prostate = tested on: PC-3 prostate
RXF 393 renal = tested on: RXF 393 renal
SK-MEL-28 melanoma = tested on: SK-MEL-28 melanoma
T-47D breast = tested on: T-47D breast
UACC-257 melanoma = tested on: UACC-257 melanoma

Compound: O=C(NC(=O)c1ccccc1[N+](=O)[O-])Nc1ccc(Oc2ncc(Br)cn2)c(Cl)c1
- TGI (786-0 renal): 64.1 nM and > 100 µM
- TGI (CAKI-1 renal): 69.3 nM and > 100 µM
- TGI (CCRF-CEM leukemia): 67.1 nM and > 100 µM
- TGI (DLD-1 colon): 52 nM and > 100 µM
- TGI (DMS 114 small cell lung): 15.5 nM and 2.54 µM
- TGI (EKVX NSCLC): 72.9 nM and > 100 µM
- TGI (HCT-116 colon): 66.5 nM and > 27.2 µM
- TGI (HOP-62 NSCLC): 72.3 nM and > 100 µM
- TGI (IGROV1 ovarian): 47.4 nM and > 100 µM
- TGI (K-562 leukemia): 67.7 nM and > 100 µM
- TGI (KM12 colon): 70.6 nM and > 20.2 µM
- TGI (LXFL 529 NSCLC): 51.7 nM and > 100 µM
- TGI (M14 melanoma): 47.6 nM and > 100 µM
- TGI (M19-MEL melanoma): 50.8 nM and > 100 µM
- TGI (MOLT-4 leukemia): 55.4 nM and > 92 µM
- TGI (NCI-H23 lung): 95 nM and > 100 µM
- TGI (NCI-H460 lung): 71.5 nM and > 56.5 µM
- TGI (OVCAR-4 ovarian): 58.9 nM and > 100 µM
- TGI (RPMI-8226 leukemia): 68.8 nM and > 100 µM
- TGI (SF-268 CNS): 74.1 nM and > 100 µM
- TGI (SK-MEL-2 melanoma): 36.7 nM and > 100 µM
- TGI (SK-MEL-5 melanoma): 78.7 nM and > 100 µM
- TGI (SK-OV-3 ovarian): 68.7 nM and > 91.8 µM
- TGI (SN12C renal): 70.8 nM and > 100 µM
- TGI (SNB-19 CNS): 71.8 nM and > 100 µM
- TGI (SNB-75 CNS): 56 nM and > 100 µM
- TGI (SR leukemia): 68.9 nM and > 100 µM
- TGI (SW-620 colon): 68.7 nM and > 100 µM
- TGI (TK-10 renal): 73.7 nM and > 100 µM
- TGI (UACC-62 melanoma): 61.2 nM and > 100 µM
- TGI (UO-31 renal): 63.9 nM and > 100 µM
- TGI (XF 498 CNS): 17.7 nM and > 85.2 µM

Compound: CCCCCCCCCCCCCC(=O)OC(/C=C/C(C)C)C(O)C(O)C(OC)C(=O)NC1CCCCN(C)C1=O (stereo not given)
- GI50 (786-0 renal): 1.49 µM and > 49 µM
- GI50 (A549 NSCLC): 860 nM and > 49 µM
- GI50 (ACHN renal): 912 nM and > 49 µM
- GI50 (COLO 205 colon): 992 nM and > 49 µM
- TGI (COLO 205 colon): 8.93 µM, 4.22 µM, > 49 µM
- GI50 (HCC-2998 colon): 1.15 µM and > 49 µM
- GI50 (HCT-15 colon): 1.32 µM and > 49 µM
- GI50 (HL-60(TB) leukemia): 3.78 µM and > 49 µM
- GI50 (HOP-62 NSCLC): 1.87 µM and > 49 µM
- GI50 (HT29 colon): 3.25 µM and > 49 µM
- GI50 (IGROV1 ovarian): 1.01 µM and > 49 µM
- GI50 (KM12 colon): 2.95 µM and > 49 µM
- GI50 (LOX IMVI melanoma): 1.32 µM and > 49 µM
- GI50 (MALME-3M melanoma): 3.77 µM and > 49 µM
- GI50 (MOLT-4 leukemia): 1.78 µM and > 49 µM
- GI50 (NCI-H226 lung): 991 nM and > 49 µM
- TGI (NCI-H226 lung): 4.44 µM and > 49 µM
- GI50 (NCI-H23 lung): 2.25 µM and > 49 µM
- GI50 (NCI-H460 lung): 567 nM and > 49 µM
- GI50 (NCI-H522 lung): 2.54 µM and > 49 µM
- GI50 (OVCAR-3 ovarian): 3.97 µM and > 49 µM
- GI50 (OVCAR-4 ovarian): 3.35 µM and > 49 µM
- GI50 (OVCAR-8 ovarian): 2.68 µM and > 49 µM
- GI50 (SF-268 CNS): 3.75 µM and > 49 µM
- GI50 (SF-295 CNS): 1.69 µM and > 49 µM
- GI50 (SF-539 CNS): 2.64 µM and > 49 µM
- GI50 (SK-MEL-5 melanoma): 1.46 µM and > 49 µM
- GI50 (SN12C renal): 1.01 µM and > 49 µM
- TGI (SN12C renal): 4.78 µM and > 49 µM
- GI50 (SNB-75 CNS): 1.09 µM and > 49 µM
- GI50 (U251 CNS): 2.23 µM and > 49 µM
- GI50 (UACC-62 melanoma): 1.78 µM and > 49 µM

Compound: C[C@@H](Oc1cc(-n2cnc3ccc(CN4CCN(C)CC4)cc32)sc1C(N)=O)c1ccccc1C(F)(F)F
- GI50 (EKVX NSCLC): 2.77 µM [sample A, 1 test] and 62.4 nM [sample B, mean of 2 tests]
- TGI (HCC-2998 colon): 380 nM [sample A, mean of 2 tests] and > 10 µM [sample B, mean of 2 tests]
- GI50 (MDA-MB-231 breast): 166 nM [sample A, mean of 2 tests] and 15.1 nM [sample B, mean of 2 tests]
- GI50 (NCI-H226 lung): 71.4 nM [sample A, mean of 2 tests] and 3.18 µM [sample B, 1 test]
- TGI (SNB-75 CNS): 13.3 µM [sample A, 1 test] and 313 nM [sample B, 1 test]

Compound: O=C(CCN1CCCCC1)C(=Cc1ccccc1)C(=O)CCN1CCCCC1
- TGI (DMS 114 small cell lung): 7.34 µM and > 100 µM
- TGI (HCT-15 colon): 9.33 µM and > 100 µM
- TGI (NCI-H522 lung): 2.52 µM and 28.6 µM
- TGI (SW-620 colon): 3.59 µM and > 69.5 µM

Compound: NC(N)=NS(=O)(=O)c1ccc(Nc2c3ccccc3nc3c(C(=O)NCCO)cccc23)cc1
- TGI (786-0 renal): 483 nM and > 100 µM
- TGI (A498 renal): 345 nM and 39.1 µM
- TGI (A549 NSCLC): 421 nM and 54.3 µM
- TGI (ACHN renal): 719 nM and > 100 µM
- TGI (BT-549 breast): 290 nM and > 100 µM
- TGI (CAKI-1 renal): 511 nM and 53.4 µM
- TGI (COLO 205 colon): 316 nM and > 100 µM
- TGI (DU-145 prostate): 705 nM and 48.1 µM
- TGI (EKVX NSCLC): 834 nM and 68.9 µM
- TGI (HCC-2998 colon): 365 nM and 24.7 µM
- TGI (HCT-15 colon): 697 nM and > 100 µM
- TGI (HL-60(TB) leukemia): 749 nM and 47.9 µM
- TGI (HOP-62 NSCLC): 433 nM and 61.7 µM
- TGI (HS 578T breast): 530 nM and 85.1 µM
- TGI (HT29 colon): 347 nM and 80.4 µM
- TGI (IGROV1 ovarian): 422 nM and 47.7 µM
- TGI (K-562 leukemia): 584 nM and 98.6 µM
- TGI (KM12 colon): 363 nM and 36.1 µM
- TGI (LOX IMVI melanoma): 273 nM and > 100 µM
- TGI (M14 melanoma): 419 nM and 64.1 µM
- TGI (MALME-3M melanoma): 293 nM and 33.7 µM
- TGI (MCF7 breast): 137 nM and 43.8 µM
- TGI (MDA-MB-231 breast): 533 nM and 64.9 µM
- TGI (MDA-MB-435): 346 nM and 53.6 µM
- TGI (MDA-N): 801 nM and 49.5 µM
- TGI (MOLT-4 leukemia): 513 nM and > 100 µM
- TGI (NCI-H23 lung): 332 nM and 80.3 µM
- TGI (NCI-H460 lung): 356 nM and 37.1 µM
- TGI (NCI-H522 lung): 306 nM and 33.9 µM
- TGI (OVCAR-3 ovarian): 382 nM and 44.4 µM
- TGI (OVCAR-4 ovarian): 740 nM and 56.1 µM
- TGI (OVCAR-5 ovarian): 640 nM and 58.9 µM
- TGI (OVCAR-8 ovarian): 540 nM and > 100 µM
- TGI (PC-3 prostate): 693 nM and 56.3 µM
- TGI (RPMI-8226 leukemia): 500 nM and 59.7 µM
- TGI (RXF 393 renal): 369 nM and 43.6 µM
- TGI (SF-268 CNS): 381 nM and 39 µM
- TGI (SF-539 CNS): 429 nM and 85.1 µM
- TGI (SK-MEL-2 melanoma): 355 nM and 46.1 µM
- TGI (SK-MEL-28 melanoma): 565 nM and 42.6 µM
- TGI (SK-MEL-5 melanoma): 276 nM and 33.4 µM
- TGI (SK-OV-3 ovarian): 801 nM and > 100 µM
- TGI (SN12C renal): 683 nM and 86.7 µM
- TGI (SNB-19 CNS): 703 nM and > 100 µM
- TGI (SR leukemia): 576 nM and > 100 µM
- TGI (SW-620 colon): 507 nM and 60.1 µM
- TGI (T-47D breast): 458 nM and 45.7 µM
- TGI (TK-10 renal): 715 nM and 55.9 µM
- TGI (U251 CNS): 744 nM and > 100 µM
- TGI (UACC-257 melanoma): 569 nM and > 100 µM
- TGI (UACC-62 melanoma): 365 nM and 44.1 µM
- TGI (UO-31 renal): 473 nM and 57.2 µM
